# Source: PubChem BioAssay AID588855 (National Center for Advancing Translational Sciences (NCATS), 2011)
# Among all 410,000 compounds or so, about 5,000 (1.2%) were called active. The inconclusive results got no clear call from the source; some entries with a clear call stand among them for comparison. Calls come from the whole dose curve; as a rule, active = well fitted inhibition curve with a large enough effect; inconclusive = small, poorly fitted or top-dose-only effect; inactive = no such curve, though single readings can be large or run the other way. Where the call is inconclusive, the potency comes from a doubtful curve fit.
# Experiment: qHTS for Inhibitors of TGF-b; note: nearly all actives have a fitted effect of over 65% in size
# Conditions: HepG2 CAGA-GFP TGF-b/SMAD3 reporter, GFP fluorescence, 18 h, TGF-beta stimulated, 500 pg/mL final; series mostly up to 46.1 µM
# Method in brief: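 Cell-based qHTS in HEPG2 carrying a CAGA-GFP Smad reporter; compounds added before 500 pg/mL final TGF-beta, 18 h incubation at 37 degrees C, GFP fluorescence quantified per cell by imaging cytometry.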
# Potency is the fitted concentration of half-maximal effect; tags give direction and shape of the fitted curve.
row,SMILES,Potency
1,CCOC(=O)N1CCN(C(=O)C2CCC(=O)N(Cc3ccc(Cl)cc3)C2)CC1 (stereo unspecified),"inconclusive: 17.8 µM [inhibitor, single point]"
2,Cc1ccc(Cn2nnc3c(=O)n(CC(=O)OCc4ccccc4)cnc32)cc1,"inconclusive: 31.6 µM [inhibitor, single point]"
3,COc1ccc(C)cc1NC(=O)c1cc(S(=O)(=O)NC2CCCCCC2)ccc1F,"inconclusive: 12.6 µM [inhibitor, partial curve, poor fit]"
4,COc1ccc(Cn2c(=O)[nH]c3cc(C(=O)N4CCN(c5cc(C)ccc5C)CC4)ccc3c2=O)cc1,"inconclusive: 3.55 µM [inhibitor, full curve]"
5,Cc1ccc(N2CC(C(=O)NCCc3ccc(S(N)(=O)=O)cc3)CC2=O)cc1 (stereo unspecified),"inconclusive: 6.31 µM [inhibitor, single point]"
6,COc1cccc(/C=N\NC(=O)c2ccc(Cn3cc(Br)c([N+](=O)[O-])n3)o2)c1O,"inconclusive: 14.1 µM [inhibitor, single point]"
7,CCOc1ccc2nc(NCCO)[nH]c2c1,"inconclusive: 35.5 µM [inhibitor, single point]"
8,O=C(COc1ccc(S(=O)(=O)N2CCOCC2)cc1)Nc1ccc(Br)cc1,inactive
9,O=c1oc2ccccc2c(NCc2ccccc2F)c1[N+](=O)[O-],inactive
10,CCN(CC)C(=O)[C@H]1CC(CC(=O)NC/C=C(\C)CCC=C(C)C)C(=O)N2CCc3c([nH]c4ccc(OC)cc34)[C@]12C (stereo partly specified),active: 11.2 µM
11,Cn1c(=O)c(C(=O)CN2CCN(S(=O)(=O)c3ccccc3)CC2)c(N)n(Cc2ccccc2)c1=O,"inconclusive: 7.08 µM [inhibitor, partial curve]"
12,COc1cccc(-n2c(SCc3ccccc3C)nc3c([nH]c4ccccc43)c2=O)c1,"inconclusive: 17.8 µM [inhibitor, single point]"
13,Cc1c(C(=O)N/N=C/c2ccc(-c3ccccc3[N+](=O)[O-])o2)sc(N)c1C#N,active: 5.01 µM
14,Cc1noc(C)c1COc1ccc(C(=O)OCC(=O)Nc2ccc(S(N)(=O)=O)cc2)cc1,inactive
15,CC(C(=O)Nc1ccccc1-c1ccccc1)N1CCN(Cc2ccccc2)CC1 (stereo unspecified),"inconclusive: 35.5 µM [inhibitor, single point]"
16,CCN(CC)CCn1c2c(c(SCC(=O)Nc3cccc4ccccc34)nc1=O)CCC2,inactive
17,Cc1cccc(Cc2c(C)nc3nc(SCc4ccccc4C)nn3c2C)c1,"inconclusive: 2.24 µM [inhibitor, full curve, poor fit]"
18,COc1cccc(NC(=O)C2CCN(C(=O)N3CC(C)Oc4ccccc43)CC2)c1 (stereo unspecified),"inconclusive: 3.55 µM [inhibitor, partial curve, poor fit]"
19,CC(C)CC1C(=O)N(Cc2cn(Cc3ccco3)nn2)CCS(=O)(=O)N1Cc1ccc(-c2cccc(N(C)C)c2)cc1 (stereo unspecified),inactive
20,COc1cc(C(=O)Nc2ccn(C)n2)ccc1OC(F)F,inactive
21,Cc1ccc(S(=O)(=O)NCCC(=O)Nc2cccc(Cl)c2)cc1,inactive

row,SMILES,Potency
1,Cc1ccc(CNC(=O)CN2C(=O)C3CCCCN3c3ccc(C(=O)N4CCCC4)cc32)cc1 (stereo unspecified),"inconclusive: 22.4 µM [inhibitor, partial curve, poor fit]"
2,COc1ccc(Cl)cc1C(=O)Nc1ccc(-c2nnc3n2CCCCC3)cc1,"inconclusive: 3.55 µM [inhibitor, partial curve, poor fit]"
3,Cc1ccc(NC(=O)[C@H](C)NC(=O)C2CCN(C(=O)[C@H](CC(C)C)NC(=O)OC(C)(C)C)CC2)cc1,"inconclusive: 3.98 µM [inhibitor, single point]"
4,O=C(CSc1nc2ccccc2c(=O)n1-c1ccccc1Cl)NC1CCS(=O)(=O)C1 (stereo unspecified),inactive
5,Cc1c(C(=O)Nc2nonc2-c2ccc(F)cc2)oc2ccc(F)cc12,active: 11.2 µM
6,N#CC1=C(N)Oc2n[nH]c(-c3ccccc3)c2C12C(=O)Nc1ccccc12 (stereo unspecified),"inconclusive: 35.5 µM [inhibitor, partial curve, poor fit]"
7,CCc1ccc(NC(=O)Cn2c(=O)n(CCC(=O)NCc3ccc4c(c3)OCO4)c(=O)c3ccccc32)cc1,"inconclusive: 14.1 µM [inhibitor, partial curve, poor fit]"
8,CCCCN1CC(C)(C)[C@H](CC(=O)NC)C1=O,inactive
9,COc1cc(NC(=O)c2ccccc2NS(=O)(=O)c2ccc(Cl)s2)cc(OC)c1,"inconclusive: 3.55 µM [inhibitor, full curve]"
10,CCOC(=O)c1cnc(SCCN2CCOCC2)nc1N,"inconclusive: 1.41 µM [inhibitor, partial curve, poor fit]"
11,Cc1nc2scc(-c3cccs3)c2c(=O)n1CC(=O)O,"inconclusive: 0.112 µM [inhibitor, full curve, poor fit]"
12,Cc1cc2nc(-c3cccc(Cl)c3)c(Cc3ccccc3)n2c(C)c1Br,"inconclusive: 35.5 µM [inhibitor, single point]"
13,O=C(CCc1nc2ccccc2c(=O)[nH]1)OCC(=O)N1CCc2ccccc21,"inconclusive: 0.631 µM [inhibitor, full curve, poor fit]"
14,Cn1nnnc1SCc1ccc(Cl)cc1,"inconclusive: 3.16 µM [inhibitor, single point]"
15,O=C1CC(=O)N(c2ccccc2)c2ccccc21,"inconclusive: 2.51 µM [inhibitor, single point]"
16,O=C(NCC1CCCC(CNC(=O)Nc2ccc(Cl)cn2)C1)Nc1ccc(Cl)cn1 (stereo unspecified),"inconclusive: 35.5 µM [inhibitor, single point]"
17,COc1ccc(CCNC(=O)CCCCn2c(=O)c3ccccc3n(Cc3ccc(F)cc3Cl)c2=O)cc1OC,inactive
18,Cc1ccc(C(=O)NCC(c2cccnc2)N2CCc3ccccc32)cc1C (stereo unspecified),"inconclusive: 5.62 µM [inhibitor, partial curve, poor fit]"
19,Cc1cccc(NC(=S)NCCc2ccc3c(c2)OCCO3)c1C,"inconclusive: 35.5 µM [inhibitor, single point]"
20,O=C(Nc1ccc(-c2cccc(F)c2)cc1)C1CCCN(Cc2ccccn2)C1 (stereo unspecified),"inconclusive: 35.5 µM [inhibitor, single point]"
